pIC50: −log10 of the molar value. Lines with a small IC50 respond at low doses; fits outside the tested doses are given as limits. For AUC the same curve is integrated over the 256-fold range of doses and scaled to a fraction: 1 means no effect, lower means more sensitive. An inferred top dose was derived from the fitted curves, not read from the paper. For some assays here: Drugs with an entry number were screened twice under separate entries, and the two screens often disagree.

Compound in one assay: NC(=O)c1ccc(N(C(N)=O)c2c(F)cccc2F)nc1-c1ccc(F)cc1F [VX-702]
Nature of the assay: Viability of human cancer cell lines after 72 h of drug (GDSC screen). To be noted: top dose 2 µM; top dose inferred. On the procedure: (§1)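 Human cancer cell lines in 384-well plates, medium with 10% serum, drug for 72 h over a 256-fold dose range (nine 2-fold or five 4-fold steps up to the top dose). Adherent lines were fixed and stained with the nucleic acid dye Syto60, suspension lines read with resazurin; signal relative to control wells, capped at 0 and 100%. One two-parameter sigmoid per drug and line, fitted in a mixed model over all curves with the slope shared within a line.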
In general, pIC50 refers to −log10 of the IC50, conventionally taken in molar units. On to Capan-2 (pancreas, adherent), for which the AUC was found to be 0.985 and the pIC50 is under 5.70.

For DBTRG-05MG (glioma, adherent), the AUC came out at 0.974 and the pIC50 is under 5.70.

“DMS-273 (small cell lung carcinoma, adherent)”: the AUC is 0.979 and the pIC50 is under 5.70.

On to DOK (head and neck, adherent), for which the AUC was 0.916 and the pIC50 is under 5.70.

With EN (endometrium, adherent), the AUC came to 0.984 and the negative logarithm of the IC50 (pIC50) was under 5.70.

On to ESS-1 (endometrium, adherent), for which the AUC came to 0.99 and the pIC50 is under 5.70.

EW-7 (Ewing sarcoma, semi-adherent): the AUC stood at 0.949 and the pIC50 was under 5.70.

As to FADU (head and neck, adherent), the AUC amounted to 0.988 and the pIC50 is under 5.70.

On to FTC-133 (thyroid, adherent), for which the AUC worked out at 0.942 and the pIC50 is under 5.70.

On to G-401 (kidney, adherent), for which the AUC came to 0.978 and the pIC50 was under 5.70.

Consider H513 (mesothelioma, semi-adherent), for which the AUC was 0.986 and the pIC50 is under 5.70.

Turning to H2369 (mesothelioma, adherent), the AUC was found to be 0.987 and the pIC50 was under 5.70.

H2461 (mesothelioma, adherent): the AUC was determined as 0.983 and the pIC50 is under 5.70.

Turning to H2595 (mesothelioma, adherent), the AUC worked out at 0.967 and the pIC50 is under 5.70.

H2731 (mesothelioma, adherent): the AUC is 0.984 and the pIC50 is under 5.70.

On to H2795 (mesothelioma, adherent), for which the AUC is 0.906 and the pIC50 is under 5.70.

In the case of H2869 (mesothelioma, adherent), the AUC was 0.982 and the pIC50 was under 5.70.

HCC38 (breast, adherent): the AUC is 0.986 and the pIC50 was under 5.70.

HCC1419 (breast, adherent): the AUC was found to be 0.982 and the pIC50 is under 5.70.

HCC1428 (breast, adherent): the AUC was determined as 0.984 and the pIC50 was under 5.70.

HCC1569 (breast, adherent): the AUC is 0.981 and the pIC50 is under 5.70.

For the cell line HCC1954 (breast, adherent), the AUC was 0.985 and the pIC50 is under 5.70.

In the case of HCC-56 (large intestine, adherent), the AUC was 0.984 and the pIC50 is under 5.70.

HCC-78 (lung adenocarcinoma, adherent): the AUC turned out to be 0.977 and the negative logarithm of the IC50 (pIC50) is under 5.70.

Compound in a further assay: Cc1cc(N2CCOCC2)cc2[nH]c(-c3c(NC[C@@H](O)c4cccc(Cl)c4)cc[nH]c3=O)nc12 [BMS-536924]
The description is as above. The settings on record: top dose 4 µM; screen: GDSC drug entry 1091; top dose inferred. The method, then:
as §1
Turning to CHSA8926 (chondrosarcoma, adherent), the AUC was found to be 0.92 and the pIC50 is under 5.40.

For “COR-L23 (large cell lung carcinoma, adherent)”, the AUC worked out at 0.969 and the pIC50 was under 5.40.

Turning to CP50-MEL-B (melanoma, adherent), the AUC came to 0.835 and the pIC50 is 5.59.

As to CS1 (bone, adherent), the AUC is 0.982 and the pIC50 is under 5.40.

Turning to CaR-1 (large intestine, adherent), the AUC is 0.863 and the pIC50 was under 5.40.

Take Calu-3 (lung adenocarcinoma, adherent): the AUC is 0.938 and the pIC50 is under 5.40.

In the case of Capan-2 (pancreas, adherent), the AUC turned out to be 0.822 and the pIC50 was 5.52.

Regarding DBTRG-05MG (glioma, adherent), the AUC worked out at 0.877 and the pIC50 was under 5.40.

Take “DMS-273 (small cell lung carcinoma, adherent)”: the AUC came out at 0.957 and the pIC50 was under 5.40.

As to DOK (head and neck, adherent), the AUC worked out at 0.777 and the pIC50 is 5.60.

With EN (endometrium, adherent), the AUC was found to be 0.958 and the pIC50 was under 5.40.

On to ESS-1 (endometrium, adherent), for which the AUC amounted to 0.969 and the pIC50 is under 5.40.

Take EW-7 (Ewing sarcoma, semi-adherent): the AUC worked out at 0.7 and the pIC50 is 6.08.

In the case of FADU (head and neck, adherent), the AUC is 0.946 and the pIC50 was under 5.40.

With FTC-133 (thyroid, adherent), the AUC is 0.98 and the pIC50 was under 5.40.

G-401 (kidney, adherent): the AUC came out at 0.81 and the pIC50 is 5.63.

Turning to H513 (mesothelioma, semi-adherent), the AUC was found to be 0.973 and the pIC50 was under 5.40.

With H2369 (mesothelioma, adherent), the AUC was 0.969 and the pIC50 was under 5.40.

As to H2461 (mesothelioma, adherent), the AUC worked out at 0.934 and the pIC50 is under 5.40.

Take H2595 (mesothelioma, adherent): the AUC amounted to 0.968 and the pIC50 is under 5.40.

In the case of H2731 (mesothelioma, adherent), the AUC was 0.92 and the pIC50 was under 5.40.

Consider H2795 (mesothelioma, adherent), for which the AUC worked out at 0.875 and the pIC50 is 5.42.

As for H2869 (mesothelioma, adherent), the AUC worked out at 0.888 and the pIC50 is under 5.40.

For HCC38 (breast, adherent), the AUC was 0.953 and the pIC50 is under 5.40.

HCC1419 (breast, adherent): the AUC worked out at 0.98 and the pIC50 is under 5.40.

With HCC1428 (breast, adherent), the AUC came out at 0.983 and the pIC50 is under 5.40.

As for HCC1569 (breast, adherent), the AUC was found to be 0.976 and the pIC50 was under 5.40.

As for HCC1954 (breast, adherent), the AUC was found to be 0.969 and the pIC50 is under 5.40.

Turning to HCC-56 (large intestine, adherent), the AUC amounted to 0.8 and the pIC50 is 5.70.

HCC-78 (lung adenocarcinoma, adherent): the AUC amounted to 0.7 and the pIC50 was 5.99.

Compound in a further assay: CC(C)=CC[C@@H](O)C1=CC(=O)c2c(O)ccc(O)c2C1=O [Shikonin]
Described as above. The settings on record: top dose 16 µM; top dose inferred. On the procedure:
as §1
In the case of CHSA8926 (chondrosarcoma, adherent), the AUC amounted to 0.855 and the pIC50 was under 4.80.

Consider “COR-L23 (large cell lung carcinoma, adherent)”, for which the AUC was 0.416 and the pIC50 was 6.23.

In the case of CP50-MEL-B (melanoma, adherent), the AUC came to 0.59 and the pIC50 is 5.75.

Consider CS1 (bone, adherent), for which the AUC is 0.529 and the pIC50 is 5.92.

For the cell line CaR-1 (large intestine, adherent), the AUC came to 0.524 and the pIC50 was 5.92.

Turning to Calu-3 (lung adenocarcinoma, adherent), the AUC was determined as 0.52 and the pIC50 was 5.94.

In the case of Capan-2 (pancreas, adherent), the AUC turned out to be 0.555 and the pIC50 is 5.84.

Regarding DBTRG-05MG (glioma, adherent), the AUC is 0.436 and the pIC50 was 6.19.

As for “DMS-273 (small cell lung carcinoma, adherent)”, the AUC came out at 0.367 and the pIC50 was 6.38.

Turning to DOK (head and neck, adherent), the AUC came out at 0.663 and the negative logarithm of the IC50 (pIC50) is 5.44.

As to EN (endometrium, adherent), the AUC was 0.844 and the pIC50 was under 4.80.

Regarding ESS-1 (endometrium, adherent), the AUC is 0.67 and the pIC50 is 5.55.

Take EW-7 (Ewing sarcoma, semi-adherent): the AUC stood at 0.512 and the negative logarithm of the IC50 (pIC50) was 5.97.
